Measurements from a collection of fitness landscapes (doi:10.1126/science.1257360).
The other results are listed elsewhere or left out.

B1: PhoQ; a variant is named by its letters at X, in order, P23837 (parent)
chain: MKKLLRLFFPLSLRVRFLLATAAVVLVLSLAYGMVALIGYSVSFDKTTFRLLRGESNLFYTLAKWENNKLHVELPENIDKQSPTMTLIYDENGQLLWAQRDVPWLMKMIQPDWLKSNGFHEIEADVNDTSLLLSGDHSIQQQLQEVREDDDDAEMTHSVAVNVYPATSRMPKLTIVVVDTIPVELKSSYMVWSWFIYVLSANLLLVIPLLWVAAWWSLRPIEALAKEVRELEEHNRELLNPATTRELTSLVRNLNRLLKSERERYDKYRTTLTDLTHSLKTPLXXLQXXLRSLRSEKMSVSDAEPVMLEQISRISQQIGYYLHRASMRGGTLLSRELHPVAPLLDNLTSALNKVYQRKGVNISLDISPEISFVGEQNDFVEVMGNVLDNACKYCLEFVEISARQTDEHLYIVVEDDGPGIPLSKREVIFDRGQRVDTLRPGQGVGLAVAREITEQYEGKIVAGESMLGGARMEVIFGRQHSAPKDE

Variants of: B1
Test: enrichment ratio after two sorts for PhoP signalling (ratio (wild type AVST 3.29)); higher = more functional
Conditions: with PhoP (E. coli)

How did the enrichment ratio turn out when RKMV was run?
Its enrichment ratio is ≤ 0.25.

How did the enrichment ratio turn out when SHYF was run?
Its enrichment ratio is ≤ 0.25.

With RNIS as the variant, how does the enrichment ratio read?
The enrichment ratio was ≤ 0.25.

For FQYL, which enrichment ratio is on record?
The enrichment ratio was ≤ 0.25.

PVDP was tested. Which enrichment ratio did it give?
Its enrichment ratio is ≤ 0.25.

For SSGW, which enrichment ratio is on record?
Its enrichment ratio is ≤ 0.25.

For RGYF, which enrichment ratio is on record?
Its enrichment ratio is ≤ 0.25.

RGQW was tested. Which enrichment ratio did it give?
Its enrichment ratio is ≤ 0.25.

EFNN was tested. Which enrichment ratio did it give?
The enrichment ratio was ≤ 0.25.

How did the enrichment ratio turn out when KVRK was run?
The enrichment ratio was ≤ 0.25.

With VPWH as the variant, how does the enrichment ratio read?
The enrichment ratio was ≤ 0.25.

With HSRT as the variant, how does the enrichment ratio read?
Its enrichment ratio is ≤ 0.25.

For ICMA, which enrichment ratio is on record?
Its enrichment ratio is ≤ 0.25.

Which enrichment ratio does the source give for DMKL here?
Its enrichment ratio is ≤ 0.25.

For HCIL, which enrichment ratio is on record?
Its enrichment ratio is ≤ 0.25.

How did the enrichment ratio turn out when KCDQ was run?
Its enrichment ratio is ≤ 0.25.

How did the enrichment ratio turn out when DQSH was run?
The enrichment ratio was ≤ 0.25.

EVKD was tested. Which enrichment ratio did it give?
The enrichment ratio was ≤ 0.25.

With NASP as the variant, how does the enrichment ratio read?
The enrichment ratio was ≤ 0.25.

With RTHE as the variant, how does the enrichment ratio read?
Its enrichment ratio is ≤ 0.25.

For HSPI, which enrichment ratio is on record?
Its enrichment ratio is ≤ 0.25.

With FINP as the variant, how does the enrichment ratio read?
Its enrichment ratio is ≤ 0.25.

With GARH as the variant, how does the enrichment ratio read?
The enrichment ratio was ≤ 0.25.

Which enrichment ratio does the source give for LGLG here?
Its enrichment ratio is 1.32.

With HEVA as the variant, how does the enrichment ratio read?
Its enrichment ratio is ≤ 0.25.

For LDHQ, which enrichment ratio is on record?
The enrichment ratio was ≤ 0.25.

With INYQ as the variant, how does the enrichment ratio read?
Its enrichment ratio is ≤ 0.25.

For ACDK, which enrichment ratio is on record?
Its enrichment ratio is ≤ 0.25.

For DTHI, which enrichment ratio is on record?
Its enrichment ratio is ≤ 0.25.

For RDWA, which enrichment ratio is on record?
The enrichment ratio was ≤ 0.25.

FVWD was tested. Which enrichment ratio did it give?
Its enrichment ratio is ≤ 0.25.

With VKPR as the variant, how does the enrichment ratio read?
Its enrichment ratio is ≤ 0.25.

For DLGW, which enrichment ratio is on record?
Its enrichment ratio is ≤ 0.25.

For SKSL, which enrichment ratio is on record?
The enrichment ratio was 8.21.

With NYMR as the variant, how does the enrichment ratio read?
Its enrichment ratio is ≤ 0.25.

How did the enrichment ratio turn out when FDVA was run?
Its enrichment ratio is ≤ 0.25.

RSWL was tested. Which enrichment ratio did it give?
Its enrichment ratio is ≤ 0.25.

Which enrichment ratio does the source give for HARH here?
The enrichment ratio was ≤ 0.25.

ETID was tested. Which enrichment ratio did it give?
Its enrichment ratio is ≤ 0.25.

VPHK was tested. Which enrichment ratio did it give?
Its enrichment ratio is ≤ 0.25.

PRQI was tested. Which enrichment ratio did it give?
The enrichment ratio was ≤ 0.25.

How did the enrichment ratio turn out when TDDL was run?
The enrichment ratio was ≤ 0.25.

How did the enrichment ratio turn out when DEYK was run?
Its enrichment ratio is ≤ 0.25.

For SPRR, which enrichment ratio is on record?
The enrichment ratio was ≤ 0.25.

For LFVD, which enrichment ratio is on record?
Its enrichment ratio is ≤ 0.25.

RPNK was tested. Which enrichment ratio did it give?
Its enrichment ratio is ≤ 0.25.

For QKYQ, which enrichment ratio is on record?
The enrichment ratio was ≤ 0.25.

How did the enrichment ratio turn out when PDTE was run?
The enrichment ratio was ≤ 0.25.

LLRR was tested. Which enrichment ratio did it give?
The enrichment ratio was ≤ 0.25.

Which enrichment ratio does the source give for LYTY here?
The enrichment ratio was ≤ 0.25.

With WSVY as the variant, how does the enrichment ratio read?
The enrichment ratio was ≤ 0.25.

Which enrichment ratio does the source give for QNDA here?
The enrichment ratio was ≤ 0.25.

KRVK was tested. Which enrichment ratio did it give?
Its enrichment ratio is ≤ 0.25.

For PATK, which enrichment ratio is on record?
The enrichment ratio was ≤ 0.25.

ELFF was tested. Which enrichment ratio did it give?
The enrichment ratio was ≤ 0.25.

DSAM was tested. Which enrichment ratio did it give?
The enrichment ratio was ≤ 0.25.

Which enrichment ratio does the source give for FVIA here?
The enrichment ratio was ≤ 0.25.

Which enrichment ratio does the source give for GPQD here?
The enrichment ratio was ≤ 0.25.

For SRIQ, which enrichment ratio is on record?
Its enrichment ratio is ≤ 0.25.

With IFSF as the variant, how does the enrichment ratio read?
Its enrichment ratio is ≤ 0.25.

SANM was tested. Which enrichment ratio did it give?
Its enrichment ratio is 9.22.

YHAI was tested. Which enrichment ratio did it give?
Its enrichment ratio is ≤ 0.25.

How did the enrichment ratio turn out when LASF was run?
The enrichment ratio was ≤ 0.25.

For IPIR, which enrichment ratio is on record?
The enrichment ratio was ≤ 0.25.

TDWM was tested. Which enrichment ratio did it give?
Its enrichment ratio is ≤ 0.25.

Which enrichment ratio does the source give for YACG here?
The enrichment ratio was ≤ 0.25.

For FTLY, which enrichment ratio is on record?
Its enrichment ratio is 7.11.

With MIPF as the variant, how does the enrichment ratio read?
Its enrichment ratio is ≤ 0.25.

How did the enrichment ratio turn out when LCVQ was run?
Its enrichment ratio is ≤ 0.25.

How did the enrichment ratio turn out when FCYL was run?
Its enrichment ratio is ≤ 0.25.

Which enrichment ratio does the source give for SKHS here?
The enrichment ratio was ≤ 0.25.

How did the enrichment ratio turn out when LQMG was run?
The enrichment ratio was ≤ 0.25.

TACE was tested. Which enrichment ratio did it give?
The enrichment ratio was ≤ 0.25.

Which enrichment ratio does the source give for HMSH here?
The enrichment ratio was ≤ 0.25.

For QKRQ, which enrichment ratio is on record?
Its enrichment ratio is ≤ 0.25.

Which enrichment ratio does the source give for MPIH here?
The enrichment ratio was ≤ 0.25.

How did the enrichment ratio turn out when IDMS was run?
Its enrichment ratio is ≤ 0.25.

PPIR was tested. Which enrichment ratio did it give?
Its enrichment ratio is ≤ 0.25.

YQTC was tested. Which enrichment ratio did it give?
Its enrichment ratio is 0.362.

How did the enrichment ratio turn out when LNIA was run?
Its enrichment ratio is ≤ 0.25.

For LDCK, which enrichment ratio is on record?
The enrichment ratio was ≤ 0.25.

Which enrichment ratio does the source give for SFMG here?
Its enrichment ratio is 6.91.

How did the enrichment ratio turn out when MHVW was run?
Its enrichment ratio is ≤ 0.25.

How did the enrichment ratio turn out when DQFG was run?
The enrichment ratio was ≤ 0.25.

With FGFC as the variant, how does the enrichment ratio read?
Its enrichment ratio is ≤ 0.25.

Which enrichment ratio does the source give for QWCY here?
The enrichment ratio was ≤ 0.25.

With TGVL as the variant, how does the enrichment ratio read?
Its enrichment ratio is 1.12.

Which enrichment ratio does the source give for GSQK here?
Its enrichment ratio is ≤ 0.25.

LYHD was tested. Which enrichment ratio did it give?
The enrichment ratio was ≤ 0.25.

For PYYC, which enrichment ratio is on record?
The enrichment ratio was ≤ 0.25.

For WCFT, which enrichment ratio is on record?
Its enrichment ratio is ≤ 0.25.

Which enrichment ratio does the source give for DCTE here?
Its enrichment ratio is ≤ 0.25.

Which enrichment ratio does the source give for LYII here?
The enrichment ratio was ≤ 0.25.

For WKDS, which enrichment ratio is on record?
Its enrichment ratio is ≤ 0.25.

For LEFW, which enrichment ratio is on record?
Its enrichment ratio is ≤ 0.25.

Which enrichment ratio does the source give for RIHS here?
Its enrichment ratio is ≤ 0.25.

With GNLN as the variant, how does the enrichment ratio read?
The enrichment ratio was 3.44.

KETL was tested. Which enrichment ratio did it give?
The enrichment ratio was ≤ 0.25.

How did the enrichment ratio turn out when NESM was run?
Its enrichment ratio is ≤ 0.25.

VCWI was tested. Which enrichment ratio did it give?
Its enrichment ratio is ≤ 0.25.

For PTPC, which enrichment ratio is on record?
The enrichment ratio was ≤ 0.25.

How did the enrichment ratio turn out when PNHV was run?
Its enrichment ratio is ≤ 0.25.

With FLDA as the variant, how does the enrichment ratio read?
The enrichment ratio was ≤ 0.25.

With LCPR as the variant, how does the enrichment ratio read?
Its enrichment ratio is ≤ 0.25.

With MRCS as the variant, how does the enrichment ratio read?
Its enrichment ratio is ≤ 0.25.

SSIH was tested. Which enrichment ratio did it give?
The enrichment ratio was 3.59.

How did the enrichment ratio turn out when MCFS was run?
Its enrichment ratio is ≤ 0.25.

How did the enrichment ratio turn out when TSYY was run?
The enrichment ratio was 5.72.

With PESG as the variant, how does the enrichment ratio read?
Its enrichment ratio is ≤ 0.25.

With FMAT as the variant, how does the enrichment ratio read?
The enrichment ratio was ≤ 0.25.

For CSRA, which enrichment ratio is on record?
The enrichment ratio was ≤ 0.25.

For THAR, which enrichment ratio is on record?
Its enrichment ratio is ≤ 0.25.

For MAGI, which enrichment ratio is on record?
The enrichment ratio was 7.63.

With STNP as the variant, how does the enrichment ratio read?
The enrichment ratio was ≤ 0.25.

How did the enrichment ratio turn out when VDWD was run?
Its enrichment ratio is ≤ 0.25.

Which enrichment ratio does the source give for INNI here?
The enrichment ratio was ≤ 0.25.

With DYKM as the variant, how does the enrichment ratio read?
The enrichment ratio was ≤ 0.25.

MGII was tested. Which enrichment ratio did it give?
The enrichment ratio was 5.02.

LLKR was tested. Which enrichment ratio did it give?
The enrichment ratio was ≤ 0.25.

With LFIG as the variant, how does the enrichment ratio read?
The enrichment ratio was ≤ 0.25.

For PWYE, which enrichment ratio is on record?
Its enrichment ratio is ≤ 0.25.

GGCI was tested. Which enrichment ratio did it give?
The enrichment ratio was 0.663.

Which enrichment ratio does the source give for MQAF here?
Its enrichment ratio is ≤ 0.25.

For NNAN, which enrichment ratio is on record?
Its enrichment ratio is ≤ 0.25.

With LCMI as the variant, how does the enrichment ratio read?
The enrichment ratio was ≤ 0.25.

For SQSK, which enrichment ratio is on record?
The enrichment ratio was ≤ 0.25.

Which enrichment ratio does the source give for VEGI here?
Its enrichment ratio is ≤ 0.25.

TVSD was tested. Which enrichment ratio did it give?
The enrichment ratio was 2.78.

With DDNY as the variant, how does the enrichment ratio read?
Its enrichment ratio is ≤ 0.25.

How did the enrichment ratio turn out when ITLS was run?
The enrichment ratio was 1.53.

With HYPH as the variant, how does the enrichment ratio read?
Its enrichment ratio is ≤ 0.25.

With KWLK as the variant, how does the enrichment ratio read?
Its enrichment ratio is ≤ 0.25.

Which enrichment ratio does the source give for QVIW here?
Its enrichment ratio is ≤ 0.25.

Which enrichment ratio does the source give for WSPV here?
The enrichment ratio was ≤ 0.25.

WIIC was tested. Which enrichment ratio did it give?
Its enrichment ratio is ≤ 0.25.

With LYDH as the variant, how does the enrichment ratio read?
The enrichment ratio was ≤ 0.25.

Which enrichment ratio does the source give for PSRN here?
Its enrichment ratio is ≤ 0.25.

AYFR was tested. Which enrichment ratio did it give?
Its enrichment ratio is ≤ 0.25.

How did the enrichment ratio turn out when HTRS was run?
Its enrichment ratio is ≤ 0.25.

For RHCS, which enrichment ratio is on record?
The enrichment ratio was ≤ 0.25.

Which enrichment ratio does the source give for DTWI here?
The enrichment ratio was ≤ 0.25.

LVHG was tested. Which enrichment ratio did it give?
The enrichment ratio was ≤ 0.25.

Which enrichment ratio does the source give for DNNK here?
The enrichment ratio was ≤ 0.25.

For QAWL, which enrichment ratio is on record?
Its enrichment ratio is 19.9.

With RIVC as the variant, how does the enrichment ratio read?
The enrichment ratio was ≤ 0.25.

How did the enrichment ratio turn out when AMCE was run?
Its enrichment ratio is 67.3.

With PHRY as the variant, how does the enrichment ratio read?
The enrichment ratio was ≤ 0.25.

With WVLW as the variant, how does the enrichment ratio read?
The enrichment ratio was ≤ 0.25.

How did the enrichment ratio turn out when DYNP was run?
Its enrichment ratio is ≤ 0.25.

How did the enrichment ratio turn out when TIDE was run?
The enrichment ratio was ≤ 0.25.

Which enrichment ratio does the source give for ANPL here?
Its enrichment ratio is ≤ 0.25.

Which enrichment ratio does the source give for DNNV here?
Its enrichment ratio is ≤ 0.25.

MYFS was tested. Which enrichment ratio did it give?
Its enrichment ratio is ≤ 0.25.
